Measurements reported in the supplement of paper PMC12217912.
The list shows a part of the results. The full chains were built here from the parent and the listed change. Values near 0.05 are background.

B1: TEV protease; numbered along this chain (parent)
chain: MGESLFKGPRDYNPISSSICHLTNESDGHTTSLYGIGFGPFIITNKHLFRRNNGTLVVQSLHGVFKVKDTTTLQQHLVDGRDMIIIRMPKDFPPFPQKLKFREPQREERICLVTTNFQTKSMSSMVSDTSCTFPSGDGIFWKHWIQTKDGQCGSPLVSTRDGFIVGIHSASNFTNTNNYFTSVPKNFMELLTNQEAQQWVSGWRLNADSVLWGGHKVFMVKPEEPFQPVKEATQL

Variants of: B1
Test: raw area under fraction-flipped curve 0-4 h after induction (AUC4h, not background-subtracted), DNA-recorder readout of cleavage of the substrate (dimensionless); higher = more cleavage of the substrate by the protease variant
Details: temperature: 34 °C; time window: 0-4 h after rhamnose induction
Method: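 In vivo DNA recorder in E. coli TOP10(DE3) ΔrhaA at 34 °C. Each TEVp single-site mutant (parent TEVp 0) is paired with a single-site variant of the 7-mer TEVs (canonical ENLYFQ|S). The substrate sits between flexible linkers in a Bxb1-sfGFP-TEVs-SsrA fusion, so cleavage stabilises Bxb1 and speeds flipping of a recombination array, read by NGS. The value is the raw area under the fraction-flipped curve over 0-4 h after rhamnose induction (AUC4h), with ≥20 reads per time point. It is not background-subtracted; inactive controls average about 0.047.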
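Also: Bxb1 expression induced with 0.2% (w/v) L-rhamnose at OD600 near 0.5, cultures sampled hourly, flipped fraction per protease–substrate barcode pair counted by paired-end Illumina sequencing.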

Row | Variant | area with substrate ENAYFQS | area with substrate ENCYFQS | area with substrate ENDYFQS | area with substrate ENEYFQS | area with substrate ENFYFQS | area with substrate ENGYFQS | area with substrate ENIYFQS | area with substrate ENNYFQS | area with substrate ENQYFQS | area with substrate ENRYFQS | area with substrate ENSYFQS | area with substrate ENTYFQS | area with substrate ENVYFQS | area with substrate ENYYFQS | area with substrate ENHYFQS | area with substrate ENKYFQS | area with substrate ENPYFQS | area with substrate ENWYFQS | area with substrate ENMYFQS
1 | G80C | 0.0493 | 0.0824 | 0.0559 | 0.0507 | 0.0073 | 0.0538 | 0.126 | 0.0832 | 0.0588 | 0.0602 | 0.046 | 0.0186 | 0.0676 | 0.054 | – | – | – | – | –
2 | G80K | 0.0639 | – | 0.0566 | 0.0591 | – | – | 0.0913 | 0.0553 | 0.0892 | 0.0591 | 0.0609 | 0.0595 | – | 0.0588 | 0.0514 | 0.0543 | 0.0402 | 0.0522 | –
3 | G80N | 0.0603 | 0.07 | 0.0656 | 0.0634 | 0.0488 | 0.0642 | 0.125 | 0.0482 | 0.058 | 0.0494 | 0.0603 | 0.0707 | – | 0.0611 | 0.0584 | 0.0698 | 0.103 | – | 0.076
4 | G80T | 0.0747 | – | – | – | 0.065 | 0.0496 | – | – | 0.0648 | – | 0.0671 | 0.0593 | 0.0913 | – | 0.0558 | 0.067 | – | – | –
5 | R81T | 0.0533 | 0.0603 | 0.0619 | 0.0624 | 0.0689 | – | – | 0.0637 | 0.063 | 0.0641 | 0.0647 | – | 0.0579 | – | 0.0514 | – | 0.0534 | – | 0.0671
6 | M88G | 0.0492 | 0.0425 | 0.0415 | 0.0566 | 0.0541 | 0.0672 | 0.0776 | 0.0369 | 0.0471 | 0.0488 | 0.0836 | – | 0.0874 | – | 0.0586 | – | 0.0471 | 0.0246 | 0.0496
7 | M88Q | 0.0705 | – | 0.0602 | – | – | – | – | – | 0.0528 | 0.0179 | 0.0484 | 0.037 | – | 0.0685 | 0.0816 | – | – | – | –
8 | M88W | 0.0512 | 0.0429 | 0.0604 | 0.0376 | 0.0357 | 0.0474 | 0.0494 | 0.0471 | 0.0599 | – | 0.0526 | 0.0555 | 0.0595 | 0.0555 | – | 0.0341 | 0.0652 | – | –
9 | P96F | 0.0522 | – | – | 0.0484 | – | 0.0348 | 0.117 | 0.0694 | 0.061 | 0.0436 | 0.0658 | 0.0502 | 0.0567 | 0.0669 | – | 0.0536 | 0.0682 | – | –
10 | P96K | 0.0726 | 0.0716 | – | 0.0593 | 0.0652 | 0.0588 | 0.0865 | 0.0681 | 0.0569 | – | 0.0113 | – | 0.0833 | – | 0.0731 | 0.0627 | – | – | –
11 | P96L | 0.0685 | 0.0659 | 0.0673 | 0.0563 | 0.0653 | – | – | – | 0.0872 | 0.0639 | 0.0608 | 0.0529 | – | – | – | – | – | – | –
12 | P96M | 0.0377 | – | – | 0.0566 | 0.0545 | 0.0657 | 0.0883 | 0.0593 | 0.0912 | 0.0641 | 0.0731 | 0.048 | 0.0688 | 0.0426 | 0.0099 | 0.0501 | – | – | –
13 | P96S | 0.0636 | 0.0688 | – | – | 0.0509 | 0.0768 | 0.124 | 0.0538 | 0.0643 | 0.0669 | 0.067 | – | – | 0.108 | 0.0684 | 0.0561 | – | – | 0.0768
14 | P96Y | 0.102 | 0.0575 | – | 0.0624 | 0.0481 | – | – | 0.0412 | 0.037 | 0.0361 | 0.0898 | – | 0.0723 | – | 0.0875 | 0.0842 | 0.0496 | – | –
